Screen size: about 310,000 compounds; about 14,000 (4.5%) showed an effect of 50% or more. Effects have a minus sign here. This is one part of the list.
Biological target: human ether-à-go-go-related gene (hERG) potassium channel (human, UniProt Q12809)
Test: primary screen, population patch clamp on CHO cells stably expressing hERG
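Further: peak tail current of the secondary pulse compared with the same well before compound.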

Sequence of human ether-à-go-go-related gene (hERG) potassium channel (Q12809 whole entry, looked up): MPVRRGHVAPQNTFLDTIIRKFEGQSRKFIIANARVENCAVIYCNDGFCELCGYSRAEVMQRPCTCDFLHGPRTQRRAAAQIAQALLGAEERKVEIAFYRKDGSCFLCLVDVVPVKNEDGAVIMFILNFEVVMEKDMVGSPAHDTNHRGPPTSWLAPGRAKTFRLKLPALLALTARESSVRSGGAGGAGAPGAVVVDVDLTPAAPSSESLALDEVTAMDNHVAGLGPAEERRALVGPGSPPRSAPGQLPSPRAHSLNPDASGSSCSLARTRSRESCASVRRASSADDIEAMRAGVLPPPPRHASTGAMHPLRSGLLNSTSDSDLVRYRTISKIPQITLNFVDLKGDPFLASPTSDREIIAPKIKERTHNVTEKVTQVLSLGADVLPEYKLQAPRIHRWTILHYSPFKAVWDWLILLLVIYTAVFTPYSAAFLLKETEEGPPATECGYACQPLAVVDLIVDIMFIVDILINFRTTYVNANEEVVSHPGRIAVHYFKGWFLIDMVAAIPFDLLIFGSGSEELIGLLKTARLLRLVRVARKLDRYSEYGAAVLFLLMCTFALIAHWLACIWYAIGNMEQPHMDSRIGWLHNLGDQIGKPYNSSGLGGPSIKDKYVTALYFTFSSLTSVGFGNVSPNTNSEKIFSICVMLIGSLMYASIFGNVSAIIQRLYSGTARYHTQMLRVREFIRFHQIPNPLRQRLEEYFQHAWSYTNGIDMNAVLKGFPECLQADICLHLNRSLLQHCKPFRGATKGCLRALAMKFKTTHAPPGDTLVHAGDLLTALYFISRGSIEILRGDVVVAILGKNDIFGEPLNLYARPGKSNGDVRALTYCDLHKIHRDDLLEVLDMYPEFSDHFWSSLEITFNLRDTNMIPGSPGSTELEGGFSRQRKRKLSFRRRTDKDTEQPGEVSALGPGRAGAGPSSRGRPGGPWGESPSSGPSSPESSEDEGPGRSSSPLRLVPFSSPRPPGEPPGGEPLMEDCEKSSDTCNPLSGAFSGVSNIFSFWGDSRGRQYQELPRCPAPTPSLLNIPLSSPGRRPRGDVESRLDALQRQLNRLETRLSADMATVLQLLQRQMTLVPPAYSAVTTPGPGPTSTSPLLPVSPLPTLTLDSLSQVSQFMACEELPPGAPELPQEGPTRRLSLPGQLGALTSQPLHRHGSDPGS

SMILES	hERG current change (%, negative = inhibition) at 10uM [%]
CC1=CC(C)(C)N(C(=O)C(C)N2C(=O)c3ccccc3C2=O)c2ccc(C)cc21 (centres unmarked)	2.88
CC(C)NC(=O)CC(=O)N/N=C/c1ccc(Br)cc1	-3.25
COc1ccc(OC)c(Cc2nnc(CCC(=O)NC3CCCCC3)o2)c1	21.4
Cc1nn(CC(=O)Nc2ccc(C(=O)N3CCCCC3)cc2)c(=O)c2ccccc12	-9.2
Cc1nn(-c2ccccc2)c2[nH]c(C(F)(F)F)cc(=O)c12	-12.5
COc1ccc(N2CCN(S(=O)(=O)c3ccc4c(c3)NC(=O)C(C)C(=O)N4)CC2)cc1 (centres unmarked)	9.78
COCCNC(=S)N/N=C/c1c(C)[nH]c2ccccc12	-0.503
COc1cc(C2C(C#N)=C(N)Oc3cc(O)ccc32)cc2c1OCO2 (centres unmarked)	-17.6
CC1CC(CC(C)C(=O)NC(=S)Nc2ccc(S(N)(=O)=O)cc2)C(=O)O1 (centres unmarked)	17.1
Cc1oc(-c2ccccc2)nc1CSc1nc2c(c(=O)[nH]1)CCC2	-2.57
CCCOc1ccc2c(c1)C(=NN=C(N)N)c1cc(OCCC)ccc1-2.Cl	24.2
COc1ccc(OC)c(NC(=O)CCCNC(=O)Cn2cnc3sc(C)c(C)c3c2=O)c1	7.6
CCN(CC(=O)Nc1c(F)cccc1F)C(=O)C1CCN(C(=O)c2ccc(Cl)cc2)CC1	-17.6
O=C(COn1nnc2ccc(C(F)(F)F)cc21)Nc1nnc(-c2ccccc2)o1	-3.51
Cc1ccccc1NS(=O)(=O)c1ccc(C(=O)N2CCCCCC2)cc1	-11.5
O=C(COC(=O)/C=C/c1ccccc1[N+](=O)[O-])Nc1ccc(OCc2ccccc2)cc1	17.2
COc1ccccc1N1CCN(S(=O)(=O)CCNC(=O)C2CCCC2)CC1	-11.9
CCCCCCN1C=CC=C/C1=C\C=C(C#N)C#N	-71.1
CCOCCCNC(=S)NCCNc1nc2c(C)cccc2cc1C#N	-23.3
COc1cc(C2=NC(CO)(CO)CO2)cc(OC)c1OC	11.6
O=C(NCCCN1CCCC1=O)c1cccc(S(=O)(=O)Nc2ccccc2Cl)c1	21
Clc1cnc2nc(SC/C=C/c3ccccc3)[nH]c2c1	22.2
CC1CCC2(CC1)NC(=O)N(CC(=O)Nc1ccc(F)cc1)C2=O (centres unmarked)	-0.443

SMILES	hERG current change (%, negative = inhibition) at 10uM [%]
COC(=O)c1ccc(NC(=O)c2ccccc2-c2ccccc2C(=O)O)cc1	5.69
O=C1CN=C(Nc2ccccc2Cl)N1c1ccccc1	4.93
CC(=O)Nc1ccc(S(=O)(=O)Nc2cccn(Cc3ccc(C)cc3)c2=O)cc1	-5.96
CS(=O)(=O)N(CC(=O)Nc1ccccc1Sc1ccccc1)c1ccc(F)cc1	-0.802
COc1cc2oc(=O)c3c(c2cc1OCC(=O)c1c(C)n(C)c2ccccc12)CCCC3	10.6
COc1ccc(NC(=S)NC23CN4CN(CN(C4)C2)C3)cc1	11.7
Cc1oc(-c2cccc(F)c2)nc1CN1CCCN(C(=O)c2ccco2)CC1	-74.7
O=C(Nc1ccccc1)Nc1ccccc1NS(=O)(=O)c1cccs1	14.9
Cc1ccc(-c2nc3sc4c(c3c(=O)n2N)CC(C)(C)OC4)cc1	23
COc1ccc(OC(C)C(=O)N2CC(C)OC(C)C2)cc1 (centres unmarked)	3.1
Cc1cc(C)nc(SC/C=C/c2ccccc2)n1.Cl	17.2
COc1ccc(C(=O)SC2=NCCS2)cc1	6.21
CCOCCCNC(=O)C1(O)c2cc(Br)ccc2NC(=O)N1c1cccc(OC)c1 (centres unmarked)	14.2
C/C(=N\NC(=O)c1c(Cl)c(C)nn1C)c1ccc(NC(=O)COc2ccc(Cl)cc2C)cc1	6.86
COc1ccc2[nH]c(=O)c(CN(C(=O)c3ccccn3)C3CCCCC3)cc2c1	1.24
Cc1nc2ccc(NC(=S)NCCCO)cc2nc1C	15.2
Cc1ccc(C(=O)NC(=S)Nc2ccc3[nH]c(=O)[nH]c3c2)cc1	-17.4
CC(=O)O[C@@H]1/C=C/[C@](C)(O)C[C@@H](C)C/C=C/[C@H]2[C@H](O)C(C)=C(C)[C@H]3[C@H](Cc4ccccc4)NC(=O)[C@@]123	-15.4
O=C(COc1ccc2ccccc2c1)Nc1ccc(S(=O)(=O)N2CCCCCC2)cc1	11.3
COc1ccc(Cn2nnnc2C(C(C)C)N2CCN(c3ccccc3OC)CC2)cc1 (centres unmarked)	-26.5
Cn1cc(C(=O)c2cccc(Cl)c2Cl)cc1C(=O)O	10.2
CN(C)CCCn1c2c(c(SCC(=O)Nc3ccc4c(c3)OCO4)nc1=O)CCC2	-10.7
Cc1ccc(OCc2n[nH]c(=S)n2C2CCCCC2)cc1	21

SMILES	hERG current change (%, negative = inhibition) at 10uM [%]
Cc1nn(Cc2ccc(C(=O)NN)o2)c(C)c1Cl	10.1
CC(C)(C)OC(=O)N1CCC[C@H]1C(=O)NCC1CCC(C(=O)O)CC1 (some centres unmarked)	-6.17
Cc1cc(C)n2nc(C(=O)N/N=C/c3ccccc3Cl)nc2n1	-13.8
Cc1cccc(N=C2NN=C(c3ccccc3F)CS2)c1C	41.8
Cc1cc(NC(=O)c2ccc(Cl)cc2)n(CCC#N)n1	10.9
CCN(CC(=O)NCc1ccc(F)cc1)c1ccc(S(C)(=O)=O)cc1[N+](=O)[O-]	-28.8
C[C@]12C(=O)N(c3ccc(Cl)cc3)C(=O)N1[C@H]1c3ccccc3OC[C@@H]1[C@H]2c1ccccc1	16.6
CC1(C)Cc2ccccc2-c2nnc(-c3ccccc3)n21	-10.8
CC(C(=O)Nc1ccc(O)cc1)c1cccc(C(=O)c2ccccc2)c1 (centres unmarked)	-4.06
COC(=O)CC1C(=O)NCCN1C(=O)Nc1cccc(Cl)c1 (centres unmarked)	19.1
O=C(NCCCN1CCOCC1)c1ccc(Br)cc1	-13.7
CC(OC(=O)/C=C/c1ccc2ccccc2n1)C(=O)Nc1ccc(S(N)(=O)=O)cc1 (centres unmarked)	19.1
CN1CCN(c2cc([N+](=O)[O-])ccc2Cl)CC1	-23.3
N#CCCN1CCN(S(=O)(=O)c2ccc(S(=O)(=O)NC3CCCC3)cc2)CC1	-9.4
Cc1ccc2nc3c(cc(C(=O)NC4CCCC4)c(=N)n3CCCn3ccnc3)c(=O)n2c1	-58.6
CCc1nonc1NC(=O)c1oc2cc(C)c(C)cc2c1C	23.3
CC(C)Cn1c([N+](=O)[O-])nc2c1c(=O)[nH]c(=O)n2C	9.84
O=C(OCC(=O)N1CCCC1=O)c1cccc(S(=O)(=O)N2CCOCC2)c1	9.22
COc1ccc(-c2cc(COc3ccccc3)on2)cc1	36.1
O=C(c1ccccc1[N+](=O)[O-])N1CCC(Cc2ccccc2)CC1	-19
O=C(CN1C(=O)c2ccccc2S1(=O)=O)NCc1ccccc1Cl	-4.09
C=CCNC(=O)c1onc(CSc2cccc(Cl)c2)c1C(=O)O	5.55
CC1(C)C2([N+](=O)[O-])CN(CCO)CC1([N+](=O)[O-])CN(CCO)C2	3.83

SMILES	hERG current change (%, negative = inhibition) at 10uM [%]
CCCOc1ccc(N2C(=O)CC(N(Cc3ccccc3)N=O)C2=O)cc1 (centres unmarked)	-8.69
Cc1occc1-c1nnc(SCC(=O)NC(=O)NC(C)C)n1N	11
CCN(CC(=O)Nc1ccc(NC(C)=O)cc1)C(=O)/C=C/c1cn(-c2ccccc2)nc1-c1ccc(F)cc1	5.58
CCC(CC)c1nnc(NS(=O)(=O)Cc2ccccc2)s1	16.9
CCCNS(=O)(=O)c1ccc(CCC(=O)NCc2ccco2)cc1	-10.5
CC1CC(=O)N(CC(=O)NCc2ccc(F)cc2)c2ccccc2S1(=O)=O (centres unmarked)	-1.35
CSc1ccccc1C(=O)NCc1ccccc1	11.1
CCC(C(=O)Nc1ccccc1N1CCCC1)c1ccccc1 (centres unmarked)	-9.92
Cn1cc(SCC(=O)Nc2nccs2)c2ccccc21	7.51
CCCCn1nc2cc(C(=O)NCCc3ccc(C)cc3)ccc2c1OCC	-6
Cc1cc(NC(=O)CSc2nccn2-c2ccc(F)cc2)no1	-2.24
CC(=O)Nc1ccc(C(=O)NC2CCCC2)cc1	3.73
CCCCNC(=O)Nc1nnc(-c2ccc(Cl)cc2)o1	-8.73
COCc1nnc(NC(=O)c2ccc(OC)cc2OC)s1	-2.26
Cl.O=C(c1ccc(Cl)cc1)N1CCN(CCc2ccccn2)CC1	-69
CN1c2ccccc2Oc2nnc(Cl)cc21	-5.87
COc1ccc(C(=O)NNC(=O)C(NC(=O)c2cc(OC)cc(OC)c2)C(C)C)cc1 (centres unmarked)	8.99
CCOC(=O)Nc1nnc(Cc2ccc(Cl)c(Cl)c2)s1	5.09
Cc1ccc(OCC(=O)NCCNC(=O)c2ccco2)cc1C	4.38
COc1ccccc1CN1CC(C(=O)NC2(c3ccccc3)CC2)CCC1=O (centres unmarked)	-9.07

— PMC4336329 (PLoS ONE, 2015)
